{"source": "PubChem BioAssay AID624173", "about": "(National Center for Advancing Translational Sciences (NCATS), 2012)", "note": "Screen size: about 410,000 compounds; about 490 (0.12%) were called active. The shares of active, inactive and inconclusive entries below differ from those in the screen. Calls come from the whole dose curve; as a rule, active = well fitted inhibition curve with a large enough effect; inconclusive = small, poorly fitted or top-dose-only effect; inactive = flat fitted curve, though single readings scatter. A potency beside an inconclusive call is a rough fit, not a confirmed value. Potency is the fitted concentration of half-maximal effect; tags give direction and shape of the fitted curve.", "data": [{"molecular_target": "pyruvate kinase (Trypanosoma brucei) (UniProt Q57TT1)", "test": "qHTS of Trypanosoma Brucei Inhibitors; note: nearly all actives have a fitted effect of over 50% in size", "conditions": "TbPYK enzyme, Kinase-Glo Plus ATP luminescence, 45 min; series mostly up to 76.8 µM", "summary_of_the_method": "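In this concentration-response screen, enzyme-free wells defined baseline while DMSO plates tracked drift. Each reaction combined TbPYK, substrate, compound and 130 uM ADP for 45 min at room temperature. Kinase-Glo Plus luminescence gave the signal.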", "values": [{"molecule": "CC1=C(C)/C(=N\\OC(=O)/C=C/c2ccccc2)C=CC1=O", "Potency": "inconclusive: 31.6 µM [inhibitor, single point]"}, {"molecule": "CN1CCN(C(=S)c2ccc(N(C)C)cc2)CC1", "Potency": "inconclusive: 22.4 µM [inhibitor, partial curve]"}, {"molecule": "O=C(c1cccnc1)n1nc(NCc2ccccc2)nc1NCc1ccccc1", "Potency": "inactive"}, {"molecule": "O=c1[nH]c2sc3c(c2c2nncn12)CCCC3", "Potency": "inconclusive: 35.5 µM [inhibitor, partial curve]"}, {"molecule": "O=S(=O)(c1ccc(N=C2NN=C(c3cc(F)ccc3F)CS2)cc1)N1CCOCC1", "Potency": "inconclusive: 20 µM [inhibitor, partial curve, poor fit]"}, {"molecule": "S=c1[nH]nc(COc2ccccc2)n1/N=C/c1ccc(Br)s1", "Potency": "inconclusive: 2.51 µM [inhibitor, partial curve, poor fit]"}, {"molecule": "O=C(CSc1ccccc1)Nc1nnc(COc2ccc(Cl)cc2)s1", "Potency": "inconclusive: 35.5 µM [inhibitor, partial curve, poor fit]"}, {"molecule": "CC1CCN(CCCn2c(=S)[nH]c3c(sc4ccccc43)c2=O)CC1", "Potency": "inconclusive: 17.8 µM [inhibitor, partial curve]"}, {"molecule": "CCOC(=O)C1=CC[C@@H](c2ccccc2)N(S(=O)(=O)c2ccc(C)cc2)[C@H]1C=C(C)C", "Potency": "inactive"}, {"molecule": "CCOC(=O)CCc1c(C)nc(SCC(=O)O)c(C#N)c1C", "Potency": "active: 31.6 µM"}, {"molecule": "Cc1ccc(-n2c(COc3ccccc3)n[nH]c2=S)cc1", "Potency": "inconclusive: 11.2 µM [inhibitor, partial curve]"}, {"molecule": "C/C(=N\\NC(=O)C1CCCC1)c1ccc(Cl)c(Cl)c1", "Potency": "inactive"}, {"molecule": "COc1ccc(OC)c(N2C(=O)/C(=C/c3ccco3)C(=O)NC2=S)c1", "Potency": "inconclusive: 17.8 µM [inhibitor, partial curve, poor fit]"}, {"molecule": "O=C(CSc1ccc2nnc(CCNC(=O)c3ccccc3)n2n1)Nc1ccccc1", "Potency": "inactive"}, {"molecule": "Cc1ccc(-c2nc3[nH]c(=O)cc(NC(=O)C(C)C)n3n2)cc1", "Potency": "inconclusive: 28.2 µM [inhibitor, partial curve]"}, {"molecule": "CCCCc1ccc(NC(=S)N2CCN(C)CC2)cc1", "Potency": "inactive"}, {"molecule": "O=C(c1ccco1)N1CCN(CCCCN2C(=O)c3ccccc3C2=O)CC1", "Potency": "inactive"}, {"molecule": "CCOc1cc(-c2nc(-c3ccc(-c4ccc(C)cc4)nc3OC)no2)cc(OCC)c1OCC", "Potency": "inactive"}, {"molecule": "COc1ccc(OC)c(C2CC(=O)N3CN(c4ccccc4F)CSC3=C2C#N)c1", "note": "(centres undefined)", "Potency": "inconclusive: 3.55 µM [inhibitor, full curve, poor fit]"}, {"molecule": "COc1ccc(-n2sc3ccc(F)cc3c2=O)cc1", "Potency": "inconclusive: 4.47 µM [inhibitor, full curve, poor fit]"}, {"molecule": "O=C(c1ccccc1)c1ccc(OCC(O)CN2CCN(S(=O)(=O)N3CCCCC3)CC2)cc1", "note": "(centres undefined)", "Potency": "inconclusive: 39.8 µM [inhibitor, single point]"}, {"molecule": "CCCCOc1c(Cl)cc(C(=O)N(Cc2ccc(C)o2)C2CCS(=O)(=O)C2)cc1Cl", "note": "(centres undefined)", "Potency": "inconclusive: 39.8 µM [inhibitor, single point]"}, {"molecule": "CCOC(=O)C1=C(CSc2nc(C)ccc2C#N)OC(N)=C(C#N)C1c1cccc(OC)c1OC", "note": "(centres undefined)", "Potency": "inconclusive: 31.6 µM [inhibitor, partial curve]"}, {"molecule": "CCCCn1c(C23CC4CC(CC(C4)C2)C3)n[nH]c1=S", "Potency": "active: 6.31 µM"}, {"molecule": "Cc1[nH]c2ccc(-c3n[nH]c(=S)n3C)cc2c1C", "Potency": "inconclusive: 17.8 µM [inhibitor, partial curve]"}, {"molecule": "CC(C)(C)c1ccc(-c2n[nH]c(=S)n2Cc2ccccc2)cc1", "Potency": "inconclusive: 35.5 µM [inhibitor, partial curve, poor fit]"}, {"molecule": "Cc1ccc(Cl)cc1N1CCN(C(=O)CSc2nnc3n2C(C)(C)Cc2ccccc2-3)CC1", "Potency": "inconclusive: 35.5 µM [inhibitor, partial curve, poor fit]"}, {"molecule": "O=C(Nc1ccccn1)c1sc2cc([N+](=O)[O-])ccc2c1Cl", "Potency": "inconclusive: 2.24 µM [inhibitor, full curve, poor fit]"}, {"molecule": "Cc1ccc(-c2nc3ccccc3n2C)o1", "Potency": "inconclusive: 35.5 µM [inhibitor, partial curve, poor fit]"}, {"molecule": "CCN(CC)c1c([N+](=O)[O-])ncn1C", "Potency": "inactive"}, {"molecule": "CCOC(=O)N1CCN(C(=S)NC(=O)c2c(-c3c(Cl)cccc3Cl)noc2C)CC1", "Potency": "inconclusive: 39.8 µM [inhibitor, partial curve, poor fit]"}, {"molecule": "O=C(NC(=S)NNC(=O)c1ccco1)c1ccc(F)cc1", "Potency": "inconclusive: 25.1 µM [inhibitor, partial curve, poor fit]"}, {"molecule": "CC(C)Cc1nnc(NC(=O)CSc2ccccn2)s1", "Potency": "inactive"}, {"molecule": "Cc1ccc(-n2c(CCC(=O)O)ccc2-c2cccs2)cc1C", "Potency": "inconclusive: 35.5 µM [inhibitor, partial curve]"}, {"molecule": "CCC(CC)C(=O)Nc1cccc(-c2nc3cccnc3s2)c1C", "Potency": "inactive"}, {"molecule": "CCC(=O)NC(c1ccccc1OC)c1ccc2cccnc2c1O", "note": "(centres undefined)", "Potency": "inactive"}, {"molecule": "COc1ccccc1-n1c(=S)[nH]c2c(sc(=S)n2-c2ccccc2)c1=O", "Potency": "inconclusive: 14.1 µM [inhibitor, partial curve, poor fit]"}, {"molecule": "CCOc1cc(C=C2C(=O)NC(=S)NC2=O)ccc1O", "Potency": "inconclusive: 14.1 µM [inhibitor, partial curve, poor fit]"}, {"molecule": "O=C(NC(=S)Nc1ccc(N2CCOCC2)cc1)c1ccc(Cl)cc1", "Potency": "inactive"}, {"molecule": "O=c1oc2ccccc2cc1-c1cn2ccccc2n1", "Potency": "inconclusive: 17.8 µM [inhibitor, partial curve, poor fit]"}, {"molecule": "CC(C)C(=O)c1cc2c(cc1NC(=O)c1ccccc1)OCCO2", "Potency": "inactive"}, {"molecule": "C[C@@H]1O[C@@H](Oc2c(-c3cc(O)c(O)c(O)c3)oc3cc(O)cc(O)c3c2=O)[C@H](O)[C@H](O)[C@H]1O", "Potency": "inconclusive: 50.1 µM [inhibitor, partial curve, poor fit]"}, {"molecule": "CCOC(=O)N1CCC(N2CCN(Cc3ccccc3)C(CCO)C2)CC1", "note": "(centres undefined)", "Potency": "inactive"}, {"molecule": "C=C1C(=O)C23CCC4C(C)(C(=O)OC)CCCC4(C)C2CCC1(O)C3", "note": "(centres undefined)", "Potency": "inconclusive: 39.8 µM [inhibitor, partial curve, poor fit]"}]}]}
